Some of the results follow.
What was measured:
Assay in all cases: glycan array binding signal (z-score within array); higher = stronger binding
Conditions in all cases: glycan notation: IUPAC condensed, linker removed; mutation: R120K
Fuc(a1-2)Gal = molecular target: Fuc(a1-2)Gal
In short: (§1)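 The binding signal is a Z-score computed within each array and averaged over linkers. Arrays of the same protein sequence at different concentrations or buffers were also averaged together. Data originate from 3228 arrays in the Consortium for Functional Glycomics database, kept only where the protein sequence was available.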

Fuc(a1-2)Gal(b1-3)GalNAc = molecular target: Fuc(a1-2)Gal(b1-3)GalNAc
In short: as §1

[1] = molecular target: Fuc(a1-2)Gal(b1-3)GalNAc(a1-3)[Fuc(a1-2)]Gal(b1-4)Glc
In short: as §1

[2] = molecular target: Fuc(a1-2)Gal(b1-3)GalNAc(a1-3)[Fuc(a1-2)]Gal(b1-4)GlcNAc
In short: as §1

[3] = molecular target: Fuc(a1-2)Gal(b1-3)GalNAc(b1-3)Gal
In short: as §1

[4] = molecular target: Fuc(a1-2)Gal(b1-3)GalNAc(b1-3)Gal(a1-4)Gal(b1-4)Glc
In short: as §1

[5] = molecular target: Fuc(a1-2)Gal(b1-3)GalNAc(b1-4)[Neu5Ac(a2-3)]Gal(b1-4)Glc
In short: as §1

Fuc(a1-2)Gal(b1-3)GlcNAc = molecular target: Fuc(a1-2)Gal(b1-3)GlcNAc
In short: as §1

[6] = molecular target: Fuc(a1-2)Gal(b1-3)GlcNAc(b1-2)Man(a1-3)[Fuc(a1-2)Gal(b1-3)GlcNAc(b1-2)Man(a1-6)]Man(b1-4)GlcNAc(b1-4)GlcNAc
In short: as §1

[7] = molecular target: Fuc(a1-2)Gal(b1-3)GlcNAc(b1-2)Man(a1-3)[Fuc(a1-2)Gal(b1-3)GlcNAc(b1-2)Man(a1-6)]Man(b1-4)GlcNAc(b1-4)[Fuc(a1-6)]GlcNAc
In short: as §1

[8] = molecular target: Fuc(a1-2)Gal(b1-3)GlcNAc(b1-3)Gal(b1-4)Glc
In short: as §1

[9] = molecular target: Fuc(a1-2)Gal(b1-3)GlcNAc(b1-3)GalNAc
In short: as §1

[10] = molecular target: Fuc(a1-2)Gal(b1-3)GlcNAc(b1-3)[Fuc(a1-2)Gal(b1-3)GlcNAc(b1-6)]GalNAc
In short: as §1

[11] = molecular target: Fuc(a1-2)Gal(b1-3)GlcNAc(b1-3)[Gal(b1-4)GlcNAc(b1-6)]Gal(b1-4)Glc
In short: as §1

[12] = molecular target: Fuc(a1-2)Gal(b1-3)GlcNAc(b1-3)[Neu5Ac(a2-6)Gal(b1-4)GlcNAc(b1-6)]Gal(b1-4)Glc
In short: as §1

[13] = molecular target: Fuc(a1-2)Gal(b1-3)GlcNAc6S
In short: as §1

[14] = molecular target: Fuc(a1-2)Gal(b1-3)[Fuc(a1-4)]GlcNAc
In short: as §1

[15] = molecular target: Fuc(a1-2)Gal(b1-3)[Fuc(a1-4)]GlcNAc(b1-2)Man(a1-3)[Fuc(a1-2)Gal(b1-3)[Fuc(a1-4)]GlcNAc(b1-2)Man(a1-3)]Man(b1-4)GlcNAc(b1-4)GlcNAc
In short: as §1

[16] = molecular target: Fuc(a1-2)Gal(b1-3)[Fuc(a1-4)]GlcNAc(b1-2)Man(a1-3)[Fuc(a1-2)Gal(b1-3)[Fuc(a1-4)]GlcNAc(b1-2)Man(a1-6)]Man(b1-4)GlcNAc(b1-4)[Fuc(a1-6)]GlcNAc(b1-4)[Fuc(a1-6)]GlcNAc
In short: as §1

[17] = molecular target: Fuc(a1-2)Gal(b1-3)[Fuc(a1-4)]GlcNAc(b1-3)[Fuc(a1-3)[Gal(b1-4)]GlcNAc(b1-6)]Gal(b1-4)Glc
In short: as §1

[18] = molecular target: Fuc(a1-2)Gal(b1-3)[Fuc(a1-4)]GlcNAc(b1-3)[Gal(b1-4)GlcNAc(b1-6)]Gal(b1-4)Glc
In short: as §1

[19] = molecular target: Fuc(a1-2)Gal(b1-4)Fuc(a1-3)]GlcNAc(b1-2)Man(a1-3)[Fuc(a1-2)Gal(b1-4)[Fuc(a1-3)]GlcNAc(b1-2)Man(a1-6)]Man(b1-4)GlcNAc(b1-4)GlcNAc
In short: as §1

Fuc(a1-2)Gal(b1-4)Glc = molecular target: Fuc(a1-2)Gal(b1-4)Glc
In short: as §1

Fuc(a1-2)Gal(b1-4)Glc6S = molecular target: Fuc(a1-2)Gal(b1-4)Glc6S
In short: as §1

Fuc(a1-2)Gal(b1-4)GlcNAc = molecular target: Fuc(a1-2)Gal(b1-4)GlcNAc
In short: as §1

[20] = molecular target: Fuc(a1-2)Gal(b1-4)GlcNAc(b1-2)Man
In short: as §1

[21] = molecular target: Fuc(a1-2)Gal(b1-4)GlcNAc(b1-2)Man(a1-3)[Fuc(a1-2)Gal(b1-4)GlcNAc(b1-2)Man(a1-6)]Man(b1-4)GlcNAc(b1-4)GlcNAc
In short: as §1

[22] = molecular target: Fuc(a1-2)Gal(b1-4)GlcNAc(b1-2)Man(a1-3)[Fuc(a1-2)Gal(b1-4)GlcNAc(b1-2)Man(a1-6)]Man(b1-4)GlcNAc(b1-4)[Fuc(a1-6)]GlcNAc
In short: as §1

[23] = molecular target: Fuc(a1-2)Gal(b1-4)GlcNAc(b1-2)[Fuc(a1-2)Gal(b1-4)GlcNAc(b1-4)]Man(a1-3)[Fuc(a1-2)Gal(b1-4)GlcNAc(b1-2)Man(a1-6)]Man(b1-4)GlcNAc(b1-4)GlcNAc
In short: as §1

[24] = molecular target: Fuc(a1-2)Gal(b1-4)GlcNAc(b1-3)Gal(b1-4)GlcNAc
In short: as §1

B1: Siglec-9 (Homo sapiens), Q9Y336 (protein)
chain: MLLLLLPLLWGRERAEGQTSKLLTMQSSVTVQEGLCVHVPCSFSYPSHGWIYPGPVVHGYWFREGANTDQDAPVATNNPARAVWEETRDRFHLLGDPHTKNCTLSIRDARRSDAGRYFFKMEKGSIKWNYKHHRLSVNVTALTHRPNILIPGTLESGCPQNLTCSVPWACEQGTPPMISWIGTSVSPLDPSTTRSSVLTLIPQPQDHGTSLTCQVTFPGASVTTNKTVHLNVSYPPQNLTMTVFQGDGTVSTVLGNGSSLSLPEGQSLRLVCAVDAVDSNPPARLSLSWRGLTLCPSQPSNPGVLELPWVHLRDAAEFTCRAQNPLGSQQVYLNVSLQSKATSGVTQGVVGGAGATALVFLSFCVIFVVVRSCRKKSARPAAGVGDTGIEDANAVRGSASQGPLTEPWAEDSPPDQPPPASARSSVGEGELQYASLSFQMVKPWDSRGQEATDTEYSEIKIHR
- glycan array binding signal (z-score) (Fuc(a1-2)Gal): -0.389
- glycan array binding signal (z-score) (Fuc(a1-2)Gal(b1-3)GalNAc): -0.342
- glycan array binding signal (z-score) [1]: 0.079
- glycan array binding signal (z-score) [2]: -0.367
- glycan array binding signal (z-score) [3]: 1.56
- glycan array binding signal (z-score) [4]: -0.035
- glycan array binding signal (z-score) [5]: -0.088
- glycan array binding signal (z-score) (Fuc(a1-2)Gal(b1-3)GlcNAc): -0.361
- glycan array binding signal (z-score) [6]: 0.613
- glycan array binding signal (z-score) [7]: 0.663
- glycan array binding signal (z-score) [8]: -0.152
- glycan array binding signal (z-score) [9]: -0.33
- glycan array binding signal (z-score) [10]: -0.127
- glycan array binding signal (z-score) [11]: 0.148
- glycan array binding signal (z-score) [12]: -0.287
- glycan array binding signal (z-score) [13]: -0.166
- glycan array binding signal (z-score) [14]: -0.351
- glycan array binding signal (z-score) [15]: 2.09
- glycan array binding signal (z-score) [16]: 0.205
- glycan array binding signal (z-score) [17]: -0.535
- glycan array binding signal (z-score) [18]: -0.297
- glycan array binding signal (z-score) [19]: 6.8
- glycan array binding signal (z-score) (Fuc(a1-2)Gal(b1-4)Glc): -0.328
- glycan array binding signal (z-score) (Fuc(a1-2)Gal(b1-4)Glc6S): -0.423
- glycan array binding signal (z-score) (Fuc(a1-2)Gal(b1-4)GlcNAc): -0.357
- glycan array binding signal (z-score) [20]: 0.754
- glycan array binding signal (z-score) [21]: 0.474
- glycan array binding signal (z-score) [22]: 0.613
- glycan array binding signal (z-score) [23]: 0.008
- glycan array binding signal (z-score) [24]: -0.693
